Measurements taken from PubChem BioAssay (NCATS).
Where “and” joins values, the source holds several entries; their conditions need not be identical. Identical values can stand only once. The inconclusive results got no clear call from the source; some entries with a clear call stand among them for comparison. Where the call is inconclusive, the potency comes from a doubtful curve fit. More than one record can exist for a structure, and the calls need not agree. Calls of active or inactive are those of the source. Calls follow the shape of the dose curve; as a rule, active = well fitted curve in the direction sought with a large enough effect; inconclusive = small, poorly fitted or top-dose-only effect, or another doubt; inactive = no such curve, though single readings can be large; an effect the other way counts as inactive or inconclusive.

Legend:
[1] = Viability qHTS for spleen associated tyrosine kinase inhibitor (SYKi) naive MV4-11 cells (AID 1963823); conditions: MV4-11 AML viability, CellTiter-Glo luminescence, 72 h; viability (% of control): at 45 µM (top of the series); also: nearly all actives have a fitted effect of over 40% in size
Summary of the method: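 Read-out: CellTiter-Glo luminescence. Exposure: 72 hr, 37 C, 5% CO2, 95% humidity. Cells: MV4-11 without SYK inhibitor history, 500/well, qHTS format.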

[2] = Viability qHTS for spleen associated tyrosine kinase inhibitor (SYKi) drug resistant MV4-11 cells (AID 1963824); also: nearly all actives have a fitted effect of over 35% in size
Summary of the method: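 CellTiter-Glo luminescence, read 10 min after reagent addition, reports viability after a 72 hr compound exposure. Cells are an MV4-11 line made resistant to SYK inhibition, seeded at 500 per well onto compound-containing plates.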

[3] = Cellular viability qHTS for adrenocortical cancer (ACC) cell line SW-13 (AID 1963989); conditions: SW-13 ACC cells viability, CellTiter-Glo, 48 h; activity (max response): stronger effect = lower value; also: nearly all actives have a fitted effect of over 65% in size;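 as to activity (max response): cells grown in serum-free medium with ITS supplement; % is scaled to controls: 0 for no effect and ±100 for the full control effect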
Summary of the method: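 IC50 and maximal-response values come from four-parameter logistic fits of titration data. SW-13 cells in serum-free medium received compounds (up to 46 uM final) for 48 h before CellTiter-Glo luminescence.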
Potency is read from the fitted curve at half-maximal effect; tags tell the direction and shape of the fitted curve.

| SMILES | Potency [1] | Potency [2] | activity (max response) [3] | Potency [3] |
| --- | --- | --- | --- | --- |
| COc1ccc(-n2cnc3cc(C(=O)N4CCCCC4)ccc32)cc1 | inconclusive: 11.8 µM [cytotoxic, partial curve] | inconclusive: 13.2 µM [cytotoxic, partial curve] | inactive: -10.1% |  |
| CC(C)(Cc1c[nH]c2ccccc12)NCC(O)COc1ccccc1C#N (stereo not given) | inconclusive: 11.9 µM [cytotoxic, partial curve] | inconclusive: 21.1 µM [cytotoxic, partial curve] | inactive: -3.72% |  |
| O=C(O)[C@@H]1CSCN1 | inconclusive: 15 µM [cytotoxic, partial curve, poor fit] | inconclusive: 4.73 µM [cytotoxic, partial curve, poor fit] | inactive: -7.21% |  |
| CCN(CC)CCNC(=O)c1ccc(NC(C)=O)cc1 | inconclusive: 1.06 µM [cytotoxic, full curve, poor fit] | inactive | inactive: -7.72% |  |
| Cc1c(NC(=O)c2cccnc2)c(=O)n(-c2ccccc2)n1C | inactive | inactive |  | inconclusive: 18.4 µM [cytotoxic, single point] |
| O=C1NC(=O)/C(=C/c2ccc3nccnc3c2)S1 | inconclusive: 16.6 µM [cytotoxic, partial curve] | inconclusive: 18.6 µM [cytotoxic, partial curve] |  | inconclusive: 25.1 µM [cytotoxic, partial curve, poor fit] |
| CCCCCCCCCCCCOCCOCCOCCOCCOCCOCCOCCOCCOCCO | inconclusive: 6.68 µM [cytotoxic, partial curve] | active: 5.96 µM |  | inconclusive: 10.3 µM [cytotoxic, partial curve] |
| Nc1nc(N)c2nc(-c3ccccc3)c(N)nc2n1 | inconclusive: 0.0237 µM [cytotoxic, full curve] | inconclusive: 0.0335 µM [cytotoxic, full curve] |  | inconclusive: 3.26 µM [cytotoxic, full curve] |
| CN1C(CCl)Nc2cc(Cl)c(S(N)(=O)=O)cc2S1(=O)=O (stereo not given) | inactive and inconclusive: 5.8 µM [cytotoxic, partial curve] | inactive and inconclusive: 8.2 µM [cytotoxic, partial curve] | inactive: -4.04% |  |
| CCCCCCOc1ccccc1C(N)=O | inconclusive: 26.6 µM [cytotoxic, single point] | inconclusive: 29.9 µM [cytotoxic, single point] |  | inconclusive: 18.4 µM [cytotoxic, single point] |
| Cc1ccc(NS(=O)(=O)c2ccc3c(c2)C2C=CCC2C(c2ccc(C(=O)O)cc2)N3)cc1C (stereo not given) | inconclusive: 26.3 µM [cytotoxic, single point] | inconclusive: 20.9 µM [cytotoxic, partial curve] | inactive: -1.16% |  |
| CCCCCC(N)=O | inactive | inconclusive: 33.5 µM [cytotoxic, single point] | inactive: 5.46% |  |
| Cc1ccccc1C(=O)N1CC/C(=N\OS(=O)(=O)O)c2ccc(Cl)cc21 | inconclusive: 13.3 µM [cytotoxic, partial curve] | inconclusive: 8.41 µM [cytotoxic, partial curve, poor fit] | inactive: 5.63% |  |
| CCN(C)S(=O)(=O)Nc1ccc(F)c(C(=O)c2c[nH]c3ncc(-c4cnc(C5CC5)nc4)cc23)c1F | inconclusive: 5.25 µM [cytotoxic, full curve] | active: 4.68 µM |  | inconclusive: 22.4 µM [cytotoxic, partial curve] |
| CCCOC(C(=O)OC1CCN(C)CC1)(c1ccccc1)c1ccccc1 | inconclusive: 33.5 µM [cytotoxic, single point] | inconclusive: 16.8 µM [cytotoxic, single point] |  | inconclusive: 18.4 µM [cytotoxic, single point] |
| Oc1ccc(/C=C/c2cc(O)cc(O)c2)cc1 | inconclusive: 26.6 µM [cytotoxic, single point] and active: 16.6 µM | inconclusive: 23.7 µM [cytotoxic, partial curve] |  | inconclusive: 14.6 µM [cytotoxic, partial curve] and inconclusive: 15.8 µM [cytotoxic, partial curve] |
| CC(C)=CCOc1ccc(/C=C/C(=O)c2ccc(OCC=C(C)C)cc2OCC(=O)O)cc1 | inconclusive: 18.8 µM [cytotoxic, partial curve] | inconclusive: 18.8 µM [cytotoxic, partial curve] |  | inconclusive: 14.6 µM [cytotoxic, partial curve] |
| CC(=O)OCC(=O)[C@@]12OC(C)(C)O[C@@H]1C[C@H]1[C@@H]3C[C@H](F)C4=CC(=O)C=C[C@]4(C)[C@@]3(F)[C@@H](O)C[C@@]12C | inactive and active: 93.4 nM | inconclusive: 4.17 µM [cytotoxic, partial curve] | inactive: 10.5% and inactive: 8.23% |  |
| CCCCOC(=O)c1ccc(N)cc1 | inconclusive: 13.3 µM [cytotoxic, partial curve, poor fit] | inconclusive: 9.44 µM [cytotoxic, partial curve, poor fit] |  | inconclusive: 16.4 µM [cytotoxic, single point] |
| COc1ccc2cc1Oc1ccc(cc1)C[C@H]1c3c(cc4c(c3Oc3cc5c(cc3OC)CCN(C)[C@@H]5C2)OCO4)CCN1C | active: 11.9 µM and inconclusive: 3.66 µM [cytotoxic, full curve] | inconclusive: 3.26 µM [cytotoxic, full curve] |  | inconclusive: 20.6 µM [cytotoxic, single point] |
| Cc1sc2c(c1C)C(c1ccc(Cl)cc1)=N[C@@H](CC(=O)Nc1ccc(OCCOCCOCCOCCNc3cccc4c3C(=O)N(C3CCC(=O)NC3=O)C4=O)cc1)c1nnc(C)n1-2 (stereo not given in full) | inconclusive: 0.0059 µM [cytotoxic, full curve] | inconclusive: 5 nM [cytotoxic, full curve] and active: 16.6 nM |  | inconclusive: 0.112 µM [cytotoxic, full curve] |
| CCC(=O)OCC(=O)C1(OC(=O)CC)C(C)CC2C3CCC4=CC(=O)C=CC4(C)C3(F)C(O)CC21C (stereo not given) | inconclusive: 6.61 µM [cytotoxic, full curve, poor fit] | inconclusive: 6.61 µM [cytotoxic, full curve, poor fit] |  | inconclusive: 0.355 µM [cytotoxic, full curve, poor fit] |
| CSC[C@H]1CN(Cc2c[nH]c3c(N)ncnc23)C[C@@H]1O | inactive | inconclusive: 37.2 µM [cytotoxic, single point] | inactive: -14.7% |  |
| Cc1cc(C)c2c(c1)[C@@H](N(Cc1cc(C(F)(F)F)cc(C(F)(F)F)c1)c1nnn(C)n1)CCCN2CC1CCC(C(=O)O)CC1 (stereo not given in full) | inconclusive: 37.2 µM [cytotoxic, partial curve, poor fit] | active: 18.6 µM | inactive: -23.9% |  |
| Cc1nc(NC(=O)N2CCC[C@H]2C(N)=O)sc1-c1ccnc(C(C)(C)C(F)(F)F)c1 | active: 13 µM and inconclusive: 18.6 µM [cytotoxic, partial curve] | active: 11.6 µM and active: 16.6 µM |  | inconclusive: 25.1 µM [cytotoxic, partial curve] |
| Nc1nccc(-c2c(-c3ccc(F)cc3)ncn2C2CCCCC2)n1 | inconclusive: 18.4 µM [cytotoxic, partial curve] and inconclusive: 23.5 µM [cytotoxic, partial curve] | inconclusive: 25.9 µM [cytotoxic, partial curve] and inconclusive: 18.6 µM [cytotoxic, partial curve] |  | inconclusive: 25.1 µM [cytotoxic, single point] |
| C=C[C@H]1CN2CC[C@H]1C[C@H]2[C@H](O)c1ccnc2ccc(OC)cc12 | inconclusive: 18.4 µM [cytotoxic, partial curve, poor fit] | inconclusive: 20.6 µM [cytotoxic, single point] | inactive: -6.74% |  |
| COc1ccc(/C=C/C(=O)c2ccc(OC)cc2OC)cc1 | inconclusive: 13.3 µM [cytotoxic, partial curve] | inconclusive: 9.44 µM [cytotoxic, partial curve] |  | inconclusive: 23.1 µM [cytotoxic, single point] |
| O=c1cc(-c2ccccc2)oc2ccccc12 | inconclusive: 21.5 µM [cytotoxic, partial curve] | active: 21.5 µM |  | inconclusive: 63.1 µM [cytotoxic, single point] |
| C[C@H]1CN(C2COC2)CCN1c1ccc(Nc2cc(-c3ccnc(N4CCn5c(cc6c5CC(C)(C)C6)C4=O)c3CO)cn(C)c2=O)nc1 | inconclusive: 16.6 µM [cytotoxic, partial curve] | inconclusive: 13.2 µM [cytotoxic, partial curve] | inactive: 10.6% |  |
